Experimental data from patent US20230348569A1.
Several values for one entry are separate records, joined by “and”; a condition that tells them apart may be missing. Equal entries are not always repeated. Where two headings read alike, the source gives them in different places.

Assays:
[1] = target: T1, SARS-COV-2-S RBD extracellular domain expressed with a C-terminal myc-myc-hexahistidine (SARS-COV-2 RBD-MMH) (SARS-CoV-2); settings: remark: other sources report otherwise
[2] = target: T1, SARS-COV-2-S RBD extracellular domain …; settings: remark: other sources report otherwise; remark: listed apart in the source

| Binder | t½ [1] | t½ [2] |
| --- | --- | --- |
| mAb10932 (antibody) heavy: EVQLVESGGGLVQSGGSLRLSCAASGLTVSSNYMSWVRQAPGKGLEWVSVIYSGGSTFYSDSVKGRFTISRHNSKNTLYLQMNSLRAEDTAVYYCARARGDAFDIWGQGTMVTVSS[human IgG1 constant region left out here] light: DIQMTQSPSSLSASVGDRVTITCQASQGISNYLNWYQQKPGKAPKLLISDASNLETGVPSRFSGSGSGTDFTFTISSLQPEDIATYYCQQYDNLRFFTFGPGTKVDIKRTVAAPSVFIFPPSDEQLKSGTASVVCLLNNFYPREAKVQWKVDNALQSGNSQESVTEQDSKDSTYSLSSTLTLSKADYEKHKVYACEVTHQGLSSPVTKSFNRGEC | 540 s | – |
| mAb10937 (antibody) heavy: QITLKESGPTLVKPTQTLTLTCTFSGFSLSTNVVGVGWIRQPPGKALEWLALIYWNDDKRYSPSLKSRLTITKDTSKNQVVLTMTNMDPVDTATYYCAHGPTGDYFDYWGQGTLVTVSS[human IgG1 constant region left out here] light: [about 100 residues left out here][about 120 residues left out here] | – | 36 s and 42 s |
